Several values for one entry are separate records, joined by “and”; a condition that tells them apart may be missing. Identical values can stand only once. The shares of active, inactive and inconclusive entries below differ from those in the screen. A potency beside an inconclusive call is a rough fit, not a confirmed value. Activity calls are given as the source filed them. Calls follow the shape of the dose curve; as a rule, active = well fitted curve in the direction sought with a large enough effect; inconclusive = small, poorly fitted or top-dose-only effect, or another doubt; inactive = no such curve, though single readings can be large; an effect the other way counts as inactive or inconclusive.
Assays:
[1] = Viability qHTS for spleen associated tyrosine kinase inhibitor (SYKi) naive MV4-11 cells (AID 1963823); settings: MV4-11 AML viability, CellTiter-Glo luminescence, 72 h; viability (% of control): at 45 µM (top of the series); also: nearly all actives have a fitted effect of over 40% in size
Procedure, shortened: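 In this viability screen, compounds acted on SYK inhibitor naive MV4-11 cells for three days (72 hr, 37 C). Remaining viable cells were measured by CellTiter-Glo luminescence following a 10 min room-temperature development.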

[2] = Viability qHTS for spleen associated tyrosine kinase inhibitor (SYKi) drug resistant MV4-11 cells (AID 1963824); also: nearly all actives have a fitted effect of over 35% in size
Procedure, shortened: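 SYK inhibitor-resistant MV4-11 AML cells, 500 per well, added to predispensed compounds and incubated 72 hr at 37 C, 5% CO2. Viability measured by CellTiter-Glo luminescence after 10 min at room temperature.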

[3] = Cellular viability qHTS for adrenocortical cancer (ACC) cell line SW-13 (AID 1963989); settings: SW-13 ACC cells viability, CellTiter-Glo, 48 h; activity (max response): stronger effect = lower value; also: nearly all actives have a fitted effect of over 65% in size;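 as to activity (max response): cells grown in serum-free medium with ITS supplement; % is scaled to controls: 0 for no effect and ±100 for the full control effect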
Procedure, shortened: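 Here, serum-free SW-13 cultures were dosed up to 46 uM. Following 48 h, ATP-dependent luminescence (CellTiter-Glo) reported viable cells, and logistic modeling produced IC50 values.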
Potency is read from the fitted curve at half-maximal effect; tags tell the direction and shape of the fitted curve.

Row | SMILES | Potency [1] | Potency [2] | Potency [3] | activity (max response) [3]
1 | COc1ccc(-c2ccc3c(N4CCOC[C@@H]4C)nc(N4CCOC[C@@H]4C)nc3n2)cc1CO | inconclusive: 0.0833 µM [cytotoxic, full curve] | active: 0.148 µM | inconclusive: 0.199 µM [cytotoxic, full curve] | –
2 | CC(=O)Oc1ccc(C2(c3ccc(OC(C)=O)cc3)C(=O)Nc3ccccc32)cc1 | inconclusive: 15 µM [cytotoxic, partial curve] | inconclusive: 11.9 µM [cytotoxic, partial curve] | – | inactive: -6.19%
3 | O=C1[C@H]2CCCC[C@H]2C(=O)N1CCCCN1CCN(c2nsc3ccccc23)CC1 | inconclusive: 16.8 µM [cytotoxic, partial curve] | inconclusive: 23.7 µM [cytotoxic, single point] | inconclusive: 18.4 µM [cytotoxic, partial curve, poor fit] | –
4 | O=C1c2ccccc2S(=O)(=O)N1CCCCN1CCN(c2ncccn2)CC1 | inactive | inconclusive: 29.9 µM [cytotoxic, single point] | – | inactive: -8.3%
5 | CCN(CCCCOC(=O)c1ccc(OC)c(OC)c1)C(C)Cc1ccc(OC)cc1 (stereo unspecified) | inconclusive: 0.0596 µM [rising, full curve] | inconclusive: 0.0033 µM [rising, full curve] | – | inactive: -18.6%
6 | CN(C(=O)CNC(=O)/C=C/c1cccc(Cl)c1)C1CCS(=O)(=O)CC1 | inconclusive: 0.662 µM [cytotoxic, full curve] | active: 0.468 µM | inconclusive: 0.562 µM [cytotoxic, full curve, poor fit] | –
7 | CCCCNc1ccc(C(=O)OCCOCCOCCOCCOCCOCCOCCOCCOCCOC)cc1 | active: 10.6 µM | inconclusive: 9.44 µM [cytotoxic, partial curve, poor fit] | inconclusive: 11.6 µM [cytotoxic, partial curve] | –
8 | O=C1c2ccccc2C(=O)c2c1ccc(O)c2O | active: 9.44 µM | inconclusive: 0.75 µM [cytotoxic, full curve, poor fit] | inconclusive: 20.6 µM [cytotoxic, partial curve, poor fit] | –
9 | Oc1c(Br)cc(Br)c2cccnc12 | inconclusive: 23.7 µM [cytotoxic, partial curve] | inconclusive: 26.6 µM [cytotoxic, single point] | active: 4.61 µM | –
10 | O=C(Nc1ncc([N+](=O)[O-])s1)c1cccs1 | inconclusive: 13.3 µM [cytotoxic, partial curve] | inconclusive: 13.3 µM [cytotoxic, partial curve] | inconclusive: 29.1 µM [cytotoxic, single point] | –
11 | Cc1ccc(C(C)C)cc2c(C)ccc1-2 | inconclusive: 0.0944 µM [rising, full curve, poor fit] | inconclusive: 33.5 µM [cytotoxic, single point] | – | inactive: 0.775%
12 | CC[C@H](NC(=O)[C@H](C)NC)C(=O)N1C[C@@H](O)C[C@H]1Cc1c(-c2[nH]c3cc(F)ccc3c2C[C@@H]2C[C@H](O)CN2C(=O)[C@H](CC)NC(=O)[C@H](C)NC)[nH]c2cc(F)ccc12 | inconclusive: 16.6 µM [cytotoxic, partial curve] | active: 0.0074 µM | inconclusive: 22.4 µM [cytotoxic, partial curve, poor fit] | –
13 | c1ccc2c(c1)CCc1ccccc1N2 | inactive | inconclusive: 29.9 µM [cytotoxic, single point] | – | inactive: -6.25%
14 | Oc1c(I)cc(I)c2cccnc12 | inconclusive: 8.41 µM [cytotoxic, partial curve] | inconclusive: 8.41 µM [cytotoxic, partial curve] | inconclusive: 3.26 µM [cytotoxic, full curve] | –
15 | CC1(C)CN(C(=O)c2ccc(-c3cccc4nc(NC(=O)C5CC5)nn34)cc2)C1 | inconclusive: 10.3 µM [cytotoxic, partial curve] and active: 6.61 µM | inconclusive: 14.8 µM [cytotoxic, partial curve] | – | inactive: 2.66%
16 | CC/C(=C(/CC)c1ccc(O)cc1)c1ccc(O)cc1 | inconclusive: 7.5 µM [cytotoxic, partial curve] and active: 16.6 µM | inconclusive: 7.5 µM [cytotoxic, partial curve] and active: 18.6 µM | inconclusive: 14.6 µM [cytotoxic, partial curve] and inconclusive: 22.4 µM [cytotoxic, partial curve] | –

Row | SMILES | Potency [1] | Potency [2] | Potency [3] | activity (max response) [3]
17 | CC(O)c1cc(C(=O)N[C@@H](C)Cn2ccc(-c3ccc(C#N)c(Cl)c3)n2)n[nH]1 (stereo partly specified) | inconclusive: 14.6 µM [cytotoxic, partial curve, poor fit] and inconclusive: 14.8 µM [cytotoxic, partial curve] | inconclusive: 13 µM [cytotoxic, partial curve] and inconclusive: 16.6 µM [cytotoxic, partial curve] | inconclusive: 22.4 µM [cytotoxic, partial curve] | –
18 | CC1CC(=O)NN=C1c1ccc(NCC(C)(C)NCC(O)COc2cc(Cl)ccc2C#N)cc1 (stereo unspecified) | inconclusive: 0.0009 µM | inconclusive: 0.0009 µM | – | inactive: -8.94%
19 | Cc1ccc(O)c(-n2nc3ccccc3n2)c1 | inactive | inconclusive: 0.0075 µM [rising, full curve, poor fit] | – | inactive: -8.34%
20 | CNC1(C)C2CCC(C2)C1(C)C (stereo unspecified) | inactive | inactive | – | inactive: -10.9%
21 | CCCCNc1ccc(C(=O)OCCN(C)C)cc1 | inconclusive: 0.237 µM [rising, partial curve, poor fit] | inactive | – | inactive: 4.21%
22 | Nc1nc2ccccc2n1Cc1ccc(F)cc1 | inconclusive: 11.9 µM [cytotoxic, partial curve, poor fit] | inconclusive: 21.1 µM [cytotoxic, single point] | inconclusive: 16.4 µM [cytotoxic, partial curve] | –
23 | C/C(=C\C(=O)Nc1ccccc1C(=O)O)c1ccc2ccccc2c1 | inconclusive: 29.1 µM [cytotoxic, single point] and inconclusive: 33.2 µM [cytotoxic, single point] | inconclusive: 29.1 µM [cytotoxic, single point] and inconclusive: 29.5 µM [cytotoxic, single point] | active: 12.6 µM | –
24 | Nc1ccc2c(c1)CN1C(=O)c3ccccc3C1=N2 | inconclusive: 0.731 µM [cytotoxic, partial curve, poor fit] | inconclusive: 0.184 µM [cytotoxic, full curve, poor fit] | inconclusive: 7.09 µM [cytotoxic, partial curve, poor fit] | –
25 | CC(=O)N[C@H]1[C@H](O[C@@H]2c3ccc(c(Cl)c3)Oc3cc4cc(c3O[C@@H]3O[C@H](CO)[C@@H](O)[C@H](O)[C@H]3NC(=O)CCCCCCCC(C)C)Oc3ccc(cc3Cl)C[C@H]3NC(=O)[C@H](N)c5ccc(O)c(c5)Oc5cc(O)cc(c5)[C@H](NC3=O)C(=O)N[C@H]4C(=O)N[C@H]3C(=O)N[C@@H]2C(=O)N[C@@H](C(=O)O)c2cc(O)cc(O[C@H]4O[C@H](CO)[C@@H](O)[C@H](O)[C@@H]4O)c2-c2cc3ccc2O)O[C@H](CO)[C@@H](O)[C@@H]1O | inactive | inactive | – | inactive: 11.6%
26 | CC(C)(NS(=O)(=O)c1ccc2c(Cl)cnc(N=C(N)N)c2c1)C(=O)O | inactive | inactive | – | inactive: 5.36%
27 | CCCCCCCC(=O)OCC(O)CO (stereo unspecified) | inconclusive: 0.0376 µM [cytotoxic, full curve, poor fit] | inactive | – | inactive: -7.07%
28 | OC(c1ccc(-c2ccc(CN3CCN(Cc4ccncc4)CC3)cc2)c(F)c1)(C(F)(F)F)C(F)(F)F | inconclusive: 411 nM [cytotoxic, full curve] and active: 4.17 µM | inconclusive: 2.91 µM [cytotoxic, full curve] | inconclusive: 14.1 µM [cytotoxic, partial curve, poor fit] | –
29 | Oc1c(Cl)cc(Cl)cc1Sc1cc(Cl)cc(Cl)c1O | inconclusive: 26.6 µM [cytotoxic, single point] | inconclusive: 21.1 µM [cytotoxic, partial curve] | active: 20.6 µM | –
30 | Cc1nc(-c2cn3c(n2)-c2ccc(-c4cnn(C(C)(C)C(N)=O)c4)cc2OCC3)n(C(C)C)n1 | inconclusive: 10.3 µM [cytotoxic, partial curve] and active: 148 nM | active: 2.59 µM and inconclusive: 2.35 µM [cytotoxic, partial curve] | inconclusive: 5.01 µM [cytotoxic, partial curve] | –
31 | CC12CCC(CC1)C(C)(C)O2 | inactive | inconclusive: 33.5 µM [cytotoxic, single point] | – | inactive: 13.8%
32 | Cn1cc(-c2ccc(-c3cncc(Cl)c3N3CCC4(CCNC4=O)CC3)cc2)cn1 | active: 5.25 µM | active: 1.48 µM | inconclusive: 8.91 µM [cytotoxic, partial curve, poor fit] | –

— PubChem BioAssay (NCATS)
